43 molecules from paper PMC4336329 (PLoS ONE, 2015) can be followed below.

About 14,000 (4.5%) of roughly 310,000 compounds showed an effect of 50% or more. Effects have a minus sign here. This is one part of the list.
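Also: peak tail current of the secondary pulse compared with the same well before compound.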

In the test the target is human ether-à-go-go-related gene (hERG) potassium channel (human, UniProt Q12809). Put plainly: primary screen, population patch clamp on CHO cells stably expressing hERG.
Chain of human ether-à-go-go-related gene (hERG) potassium channel (Q12809 whole entry, looked up): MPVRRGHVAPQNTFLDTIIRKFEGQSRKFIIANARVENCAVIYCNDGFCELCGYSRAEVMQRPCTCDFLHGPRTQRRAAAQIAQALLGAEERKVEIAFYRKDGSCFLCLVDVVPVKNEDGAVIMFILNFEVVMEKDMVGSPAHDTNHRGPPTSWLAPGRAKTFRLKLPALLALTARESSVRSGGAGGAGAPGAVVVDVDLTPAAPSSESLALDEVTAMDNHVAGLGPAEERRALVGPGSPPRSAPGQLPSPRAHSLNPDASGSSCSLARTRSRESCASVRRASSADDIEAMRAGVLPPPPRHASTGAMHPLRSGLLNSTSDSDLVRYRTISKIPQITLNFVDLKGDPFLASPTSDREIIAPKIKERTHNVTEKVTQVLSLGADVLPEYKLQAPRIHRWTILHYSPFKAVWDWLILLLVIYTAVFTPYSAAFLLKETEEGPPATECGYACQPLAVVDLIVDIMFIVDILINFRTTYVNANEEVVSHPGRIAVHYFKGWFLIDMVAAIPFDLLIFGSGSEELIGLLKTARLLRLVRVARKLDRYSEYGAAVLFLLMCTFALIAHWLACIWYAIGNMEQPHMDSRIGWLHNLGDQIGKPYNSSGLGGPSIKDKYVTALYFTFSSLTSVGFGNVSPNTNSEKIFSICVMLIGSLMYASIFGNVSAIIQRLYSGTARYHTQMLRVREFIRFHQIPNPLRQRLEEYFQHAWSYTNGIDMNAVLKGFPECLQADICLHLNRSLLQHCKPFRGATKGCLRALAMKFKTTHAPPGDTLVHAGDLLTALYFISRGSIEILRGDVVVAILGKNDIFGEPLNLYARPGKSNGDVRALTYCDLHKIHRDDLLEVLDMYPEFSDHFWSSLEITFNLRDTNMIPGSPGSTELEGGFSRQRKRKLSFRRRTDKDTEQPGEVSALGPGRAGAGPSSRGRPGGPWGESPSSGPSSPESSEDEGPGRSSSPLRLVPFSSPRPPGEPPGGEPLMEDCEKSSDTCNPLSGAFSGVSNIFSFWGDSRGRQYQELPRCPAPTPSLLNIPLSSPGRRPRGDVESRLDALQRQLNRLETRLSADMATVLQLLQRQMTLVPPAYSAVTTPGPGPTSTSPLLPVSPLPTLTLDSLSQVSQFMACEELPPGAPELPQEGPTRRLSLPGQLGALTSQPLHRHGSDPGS
`CSc1ccccc1OCc1cc(C(=O)NC(C)Cc2cccc(C)n2)no1` (stereo not shown): the “hERG current change (%, negative = inhibition) at 10uM” value is given as -3.04%.

Consider `O=C(CCNC(=O)c1ccccc1)NCc1ccccc1F`, for which the “hERG current change (%, negative = inhibition) at 10uM” value is given as -7.91%. In the case of `Cc1csc(Nc2nc(N)c(C(=O)Nc3ccccc3)o2)n1` it was 17.1%; in that of `O=C(COC(=O)[C@H](Cc1ccccc1)NC(=O)c1cccs1)NC1CC1`, -1.96%; in that of `NC(=O)C1(N2CCCCC2)CCN(C(=O)NC23CC4CC(CC(C4)C2)C3)CC1`, -10.8%. In the case of `CC1CCN(C(=O)c2[nH]cnc2C(=O)N(C)Cc2ccccc2)CC1` it was 16.3%; in that of `Cc1ccc(SCC2=NNC(=O)C2)cc1`, -3.78%; in that of `C=CCn1c(=O)c2ccccc2n2c(SC(C)C(=O)Nc3nc(-c4ccccc4)cs3)nnc12` (stereo not shown), -40.6%.

Consider `Cc1ccc(C)c(S(=O)(=O)N2CCCOC2CNC(=O)C(=O)NCc2ccccn2)c1` (stereo not shown), for which the “hERG current change (%, negative = inhibition) at 10uM” value turned out to be 5.01%. As for `I.c1ccc(Sc2cccc3ccccc23)c(CNC2=NCCN2)c1`, the figure is -13.2%; as for `COCCCNC(=O)c1ccc2c(=O)n(C3CCCC3)c(=S)[nH]c2c1`, -2.89%; as for `CCOC(=O)N/N=C(\C)c1ccccc1OC(F)F`, -8.58%. In the case of `COc1ccc(N(CC(=O)Nc2cc(C(=O)O)ccc2C)S(=O)(=O)c2c(C)noc2C)cc1` it was -15.4%; in that of `COC(=O)c1ccc(NC(=O)C2CCCN2C(=O)OCc2ccccc2)cc1` (stereo not shown), 3.3%. On to `CC(C)(C)NC(=O)C[n+]1ccc(C(N)=O)cc1.[Cl-]`, for which the “hERG current change (%, negative = inhibition) at 10uM” value stood at 8.05%. Regarding `CCOc1cc(/C=C/C(=O)c2ccc(OC)c(CN3CCOCC3)c2)cc(Br)c1O`, the “hERG current change (%, negative = inhibition) at 10uM” value is listed as -32.5%. In the case of `COC(=O)[C@H](CC(C)C)NC(=O)CCc1nnc(COc2ccccc2)o1` it was 19.4%. With `Cc1ccc2c(c1)C(c1ccc(F)cc1)N(C(=O)c1ccc(S(=O)(=O)N(C)C)cc1)CC(=O)N2` (stereo not shown), the “hERG current change (%, negative = inhibition) at 10uM” value was -33.9%.

`CS(=O)(=O)N1CCN(C(=O)CCc2ccccc2)CC1`: the “hERG current change (%, negative = inhibition) at 10uM” value came to 9.93%.

For `O=C(Nc1ccncc1)Nc1cccc(Cl)c1Cl`, the “hERG current change (%, negative = inhibition) at 10uM” value is on record as -3.97%. Consider `Nc1c(C(=O)Nc2ccccc2)sc2nc(-c3ccco3)ccc12`, for which the “hERG current change (%, negative = inhibition) at 10uM” value is listed as 10.3%.

Turning to `CC(C)(C)CN1CCN(Cc2cccnc2)CC1CCO` (stereo not shown), the “hERG current change (%, negative = inhibition) at 10uM” value was 13.6%. In the case of `COc1ccc(OC)c(C(c2nnnn2CCc2ccccc2)N2CCC(C(N)=O)CC2)c1` (stereo not shown) it was -4.58%. As for `COC(=O)c1ccc(NC(=O)Nc2cccc(F)c2)cc1`, the figure is 1.77%; as for `O=C(Nc1nccs1)c1ccc(Cl)c(S(=O)(=O)N2CCOCC2)c1`, -36%; as for `O=C1[C@H]2[C@@H](c3ccc(F)cc3)N3C(=O)N(c4cccc(Cl)c4)C(=O)[C@@]3(Cc3ccc(Cl)cc3)[C@H]2C(=O)N1C1CCCCC1`, 7.9%. `Cc1ocnc1C(=O)Nc1ccc(Cl)cc1`: the “hERG current change (%, negative = inhibition) at 10uM” value amounted to 9.52%. As for `CS(=O)(=O)c1ccc2nc(NC(=O)c3cccs3)sc2c1`, the “hERG current change (%, negative = inhibition) at 10uM” value is -17.7%.

In the case of `O=C(CN1CCN(c2ccc(Cl)cc2)CC1)N1CCCC1`, the “hERG current change (%, negative = inhibition) at 10uM” value was -22.6%.

Take `N#CCc1nn(-c2ccccc2)c2ncnc(N)c12`: the “hERG current change (%, negative = inhibition) at 10uM” value is -4%. `COc1ccc(N2CCN(C(=O)COC(=O)/C=C/c3ccc(OC(F)F)cc3)CC2)cc1`: the “hERG current change (%, negative = inhibition) at 10uM” value is given as -1.18%. In the case of `Cc1ccc(-c2csc3nnc(SCC(=O)N4CCN(Cc5ccccc5)CC4)n23)cc1`, the “hERG current change (%, negative = inhibition) at 10uM” value was -55.3%.

For the molecule `CN(C)CCCN(C(=O)c1ccc(S(=O)(=O)N(C)C2CCCCC2)cc1)c1nc2ccc(F)cc2s1.Cl`, the “hERG current change (%, negative = inhibition) at 10uM” value is -71.9%. In the case of `O=C(CC1SC(=Nc2ccccc2)N(CCc2c[nH]c3ccccc23)C1=O)Nc1ccccc1F` (stereo not shown) it was 11.7%; in that of `CCOc1ccccc1N1CCN(CC(O)COCc2cccs2)CC1` (stereo not shown), -32.1%. As to `Cc1cc(C)c(C#N)c(Sc2nnnn2-c2ccccc2)n1`, the “hERG current change (%, negative = inhibition) at 10uM” value was -3.72%. As for `CCOC(=O)c1ccc(NC(=O)CSc2nnc(NC(=O)c3ccc(S(=O)(=O)N4CCOCC4)cc3)s2)cc1`, the “hERG current change (%, negative = inhibition) at 10uM” value is on record as -1.05%. As for `Cc1ccc(OCCCC(=O)Nc2ccc(N3CCOCC3)cc2)cc1`, the figure is 20.7%; as for `O=C(c1ccc([N+](=O)[O-])cc1)N1CCN(Cc2ccccc2)CC1`, -66.4%; as for `CCOc1ccc(-c2nnc3ccc(SCC(=O)N4CCCCC4)nn23)cc1`, -5.88%. `CC(=O)c1c(C)[nH]c(C(=O)NCCN2CCC(C)CC2)c1C`: the “hERG current change (%, negative = inhibition) at 10uM” value is recorded as -0.0448%. Turning to `O=C(C1CCN(S(=O)(=O)c2cnc[nH]2)CC1)N1CCc2ccccc2C1`, the “hERG current change (%, negative = inhibition) at 10uM” value was determined as 13.1%. As for `Cc1cc(NC(=O)CCC(=O)N(Cc2ccco2)C2(C(=O)NC3CCCCC3)CCN(C)CC2)no1`, the figure is 1.56%.
